Test [1] relates to RAW-Dual. In words: NF-kB SEAP reporter activity, fold change vs agonist alone; higher = enhanced NF-kB activity. Summed up: (§1)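 RAW-Dual macrophages (50,000 cells/well in DMEM, 384-well plates) received 50 nL of library stock by pin tool, then a PRR agonist 1 h later, and were kept at 37 °C, 5% CO2. After 20 hours, supernatant was read for IRF by QuantiLuc luminescence and for NF-κB by QuantiBlue absorbance at 620 nm. Reporter activity is fold change over agonist-alone wells. Cytotoxic wells had IncuCyte confluency below 70% of agonist controls in both mask sets.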

The subject of test [2] is RAW-Dual. In words: NF-kB SEAP reporter activity, fold change vs agonist alone; cytotoxicity flag (confluency mask): cytotoxic (confluency <70% of control); higher = enhanced NF-kB activity. Summed up:
as §1

Test [3] deals with RAW-Dual. In words: NF-kB SEAP reporter activity, fold change vs agonist alone; cytotoxicity flag (confluency mask): not cytotoxic; higher = enhanced NF-kB activity. A digest of the protocol:
as §1

Where [4] appears, read: library stock concentration (final ~1000-fold dilution): 10 mM, cytotoxicity flag (confluency mask): cytotoxic (confluency <70% of control), agonist: Imiquimod (TLR7) […].
[5] abbreviates: library stock concentration (final ~1000-fold dilution): 10 mM, cytotoxicity flag (confluency mask): cytotoxic (confluency <70% of control), agonist: MPLA (TLR4) […].
Where [6] appears, read: agonist: ODN 1826 (TLR9) 0.5 ug/mL.
The mark [7] stands for this setting: agonist: Pam2CSK4 (TLR2/6) 0.1 ug/mL.
[8] abbreviates: agonist: Pam3CSK4 (TLR2/1) 0.1 ug/mL.
Setting [9] is: library stock concentration (final ~1000-fold dilution): 2 mM, cytotoxicity flag (confluency mask): not cytotoxic, agonist: Imiquimod (TLR7) […].
[10] abbreviates: library stock concentration (final ~1000-fold dilution): 2 mM, cytotoxicity flag (confluency mask): not cytotoxic, agonist: MPLA (TLR4) […].
[11] abbreviates: library stock concentration (final ~1000-fold dilution): 10 mM, cytotoxicity flag (confluency mask): not cytotoxic, agonist: Imiquimod (TLR7) […].
Setting [12] is: library stock concentration (final ~1000-fold dilution): 10 mM, cytotoxicity flag (confluency mask): not cytotoxic, agonist: MPLA (TLR4) […].

In all, about 2,900 compounds were measured (“NF-kB SEAP reporter activity, fold change vs agonist alone”: median about 0.99, highest 2% from about 2.6 on). The list shows a part of the results.

The results in this text go back to the supplement of paper PMC10037445.

As to `COc1cc(NS(C)(=O)=O)ccc1Nc1c2ccccc2nc2ccccc12.Cl`, the “NF-kB SEAP reporter activity” value turned out to be 2.58 in the test with RAW-Dual [1] (setting [4]) and 2.51 in the test with RAW-Dual [1] (setting [5]).
For the compound `COc1cc(NS(C)(=O)=O)ccc1Nc1c2ccccc2nc2ccccc12.Cl` (library stock concentration (final ~1000-fold dilution): 10 mM), the “NF-kB SEAP reporter activity” value is 2.6 in the test on RAW-Dual [2] (agonist: LPS (TLR4) 0.1 ug/mL), 0.68 in the test with RAW-Dual [2] (setting [6]), 1.05 with RAW-Dual [2] (setting [7]) and 0.776 in the test with RAW-Dual [2] (setting [8]).
In the case of `Cc1cnc(CNC(=O)c2c(=O)c3ccc(N4CCCN(C)CC4)nc3n3c2sc2ccccc23)cn1` (library stock concentration (final ~1000-fold dilution): 2 mM), the “NF-kB SEAP reporter activity” value is 1.12 in the test on RAW-Dual [3] (agonist: LPS (TLR4) 0.1 ug/mL), 1.16 in the test with RAW-Dual [3] (setting [6]), 0.641 with RAW-Dual [3] (setting [7]) and 0.697 in the test on RAW-Dual [3] (setting [8]).
Take `Cc1cnc(CNC(=O)c2c(=O)c3ccc(N4CCCN(C)CC4)nc3n3c2sc2ccccc23)cn1`: the “NF-kB SEAP reporter activity” value with RAW-Dual [1] (setting [9]) came out at 0.893; with RAW-Dual [1] (setting [10]), 0.975.
As for `O=C1/C(=C/c2ccncc2)CCC/C1=C\c1ccncc1`, the “NF-kB SEAP reporter activity” value with RAW-Dual [1] (setting [5]) is 0.323.
Turning to `O=C1/C(=C/c2ccncc2)CCC/C1=C\c1ccncc1` (library stock concentration (final ~1000-fold dilution): 10 mM), the “NF-kB SEAP reporter activity” value is 0.237 in the test on RAW-Dual [2] (agonist: LPS (TLR4) 0.1 ug/mL), 0.759 in the test on RAW-Dual [2] (setting [6]), 0.537 in the test with RAW-Dual [2] (setting [7]) and 0.963 in the test on RAW-Dual [2] (setting [8]).
For `O=C(C=Cn1cnc(-c2cc(C(F)(F)F)cc(C(F)(F)F)c2)n1)NNc1cnccn1` (library stock concentration (final ~1000-fold dilution): 10 mM), the “NF-kB SEAP reporter activity” value in the test with RAW-Dual [3] (agonist: LPS (TLR4) 0.1 ug/mL) is 0.255; in the test on RAW-Dual [3] (setting [6]) it was 0.841; with RAW-Dual [3] (setting [7]) it was 0.42; in the test with RAW-Dual [3] (setting [8]), 0.428.
In the case of `O=C(C=Cn1cnc(-c2cc(C(F)(F)F)cc(C(F)(F)F)c2)n1)NNc1cnccn1`, the “NF-kB SEAP reporter activity” value in the test with RAW-Dual [1] (setting [11]) came out at 1.41; with RAW-Dual [1] (setting [12]), 0.523.
Consider `Cc1nc2n(c(=O)c1CCN1CCC(c3noc4cc(F)ccc34)CC1)CCCC2`, for which the “NF-kB SEAP reporter activity” value with RAW-Dual [1] (setting [9]) turned out to be 0.96; with RAW-Dual [1] (setting [10]) it was 1.07.
As to `Cc1nc2n(c(=O)c1CCN1CCC(c3noc4cc(F)ccc34)CC1)CCCC2` (library stock concentration (final ~1000-fold dilution): 2 mM), the “NF-kB SEAP reporter activity” value is 1.34 in the test with RAW-Dual [3] (agonist: LPS (TLR4) 0.1 ug/mL), 1.06 in the test on RAW-Dual [3] (setting [6]), 1.15 in the test with RAW-Dual [3] (setting [7]) and 1.01 in the test on RAW-Dual [3] (setting [8]).
In the case of `COc1cc2c(cc1O)CCC1C2CCC2(C)C(O)CCC12` (stereo unspecified), the results for the “NF-kB SEAP reporter activity” value with RAW-Dual [1] (setting [4]) and in the test with RAW-Dual [1] (setting [5]) were 2 and 1.69, respectively.
With `COc1cc2c(cc1O)CCC1C2CCC2(C)C(O)CCC12` (stereo unspecified) (library stock concentration (final ~1000-fold dilution): 10 mM), the “NF-kB SEAP reporter activity” value with RAW-Dual [2] (agonist: LPS (TLR4) 0.1 ug/mL) is 2.54; in the test with RAW-Dual [2] (setting [6]), 1.73; in the test on RAW-Dual [2] (setting [7]) it was 1.75; in the test on RAW-Dual [2] (setting [8]) it was 1.34.
`CCCC(NC(=O)/C(C#N)=C/c1cccc(Br)n1)c1ccccc1` (stereo unspecified): the “NF-kB SEAP reporter activity” value in the test with RAW-Dual [1] (setting [11]) stood at 0.971; with RAW-Dual [1] (setting [12]), 0.962.
Consider `CCCC(NC(=O)/C(C#N)=C/c1cccc(Br)n1)c1ccccc1` (stereo unspecified) (library stock concentration (final ~1000-fold dilution): 10 mM), for which the “NF-kB SEAP reporter activity” value in the test on RAW-Dual [3] (agonist: LPS (TLR4) 0.1 ug/mL) worked out at 0.416; in the test with RAW-Dual [3] (setting [6]) it was 0.925; in the test on RAW-Dual [3] (setting [7]) it was 0.387; with RAW-Dual [3] (setting [8]), 0.838.
For `COC(=O)NC(C(=O)N1CCCC1C(=O)Nc1ccc(C2CCC(c3ccc(NC(=O)C4CCCN4C(=O)C(NC(=O)OC)C(C)C)cc3)N2c2ccc(C(C)(C)C)cc2)cc1)C(C)C` (stereo unspecified) (library stock concentration (final ~1000-fold dilution): 10 mM) the same measures were 1.35, 0.585, 0.487 and 0.58.
Consider `COC(=O)NC(C(=O)N1CCCC1C(=O)Nc1ccc(C2CCC(c3ccc(NC(=O)C4CCCN4C(=O)C(NC(=O)OC)C(C)C)cc3)N2c2ccc(C(C)(C)C)cc2)cc1)C(C)C` (stereo unspecified), for which the “NF-kB SEAP reporter activity” value in the test with RAW-Dual [1] (setting [12]) is 0.983.
`CC1CCC(C(=O)N(c2cc(C#CC(C)(C)C)sc2C(=O)O)C2CCC(O)CC2)CC1` (stereo unspecified) (library stock concentration (final ~1000-fold dilution): 10 mM): the “NF-kB SEAP reporter activity” value was 1.12 with RAW-Dual [3] (agonist: LPS (TLR4) 0.1 ug/mL), 0.987 with RAW-Dual [3] (setting [6]), 0.998 in the test on RAW-Dual [3] (setting [7]) and 0.917 in the test on RAW-Dual [3] (setting [8]).
Consider `CC1CCC(C(=O)N(c2cc(C#CC(C)(C)C)sc2C(=O)O)C2CCC(O)CC2)CC1` (stereo unspecified), for which the “NF-kB SEAP reporter activity” value amounted to 0.483 with RAW-Dual [1] (setting [11]) and 0.705 in the test with RAW-Dual [1] (setting [12]).
For the compound `CN(C)C1CCN(C(=O)c2ccc(NC(=O)Nc3ccc(-c4nc(N5CCOCC5)nc(N5CCOCC5)n4)cc3)cc2)CC1` (library stock concentration (final ~1000-fold dilution): 2 mM), the “NF-kB SEAP reporter activity” value with RAW-Dual [3] (agonist: LPS (TLR4) 0.1 ug/mL) was 1.19; in the test with RAW-Dual [3] (setting [6]) it was 0.965; with RAW-Dual [3] (setting [7]) it was 0.404; in the test on RAW-Dual [3] (setting [8]), 0.679.
Regarding `CN(C)C1CCN(C(=O)c2ccc(NC(=O)Nc3ccc(-c4nc(N5CCOCC5)nc(N5CCOCC5)n4)cc3)cc2)CC1`, the results for the “NF-kB SEAP reporter activity” value in the test on RAW-Dual [1] (setting [9]) and with RAW-Dual [1] (setting [10]) were 0.647 and 1.52, respectively.
In the case of `Cc1ccc(Nc2cc(NC3CCCCC3N)nnc2C(N)=O)nc1C` (stereo unspecified) (library stock concentration (final ~1000-fold dilution): 10 mM), the “NF-kB SEAP reporter activity” value was 1.51 in the test with RAW-Dual [3] (agonist: LPS (TLR4) 0.1 ug/mL), 0.188 in the test on RAW-Dual [3] (setting [6]), 1.08 in the test on RAW-Dual [3] (setting [7]) and 1.29 with RAW-Dual [3] (setting [8]).
Turning to `Cc1ccc(Nc2cc(NC3CCCCC3N)nnc2C(N)=O)nc1C` (stereo unspecified), the results for the “NF-kB SEAP reporter activity” value in the test with RAW-Dual [1] (setting [11]) and in the test with RAW-Dual [1] (setting [12]) were 1.36 and 2.35, respectively.
For `CCOC(=O)c1ccc(N)cc1.Cl` (library stock concentration (final ~1000-fold dilution): 10 mM), the “NF-kB SEAP reporter activity” value was determined as 1.21 in the test with RAW-Dual [3] (agonist: LPS (TLR4) 0.1 ug/mL), 0.914 with RAW-Dual [3] (setting [6]), 1.17 in the test on RAW-Dual [3] (setting [7]) and 0.909 in the test with RAW-Dual [3] (setting [8]).
For the compound `CCOC(=O)c1ccc(N)cc1.Cl`, in the test on RAW-Dual [1] (setting [12]), the “NF-kB SEAP reporter activity” value came to 1.12.
Regarding `CC(C)[N+]1(C)C2CCC1CC(OC(=O)C(CO)c1ccccc1)C2` (stereo unspecified), the “NF-kB SEAP reporter activity” value stood at 0.881 with RAW-Dual [1] (setting [11]) and 1.04 with RAW-Dual [1] (setting [12]).
